The supplement of paper PMC12217912
Some of the results follow. Sequences were assembled here from the parent chain. Values near 0.05 are background.

B1: TEV protease; numbered along this chain (parent)
chain: MGESLFKGPRDYNPISSSICHLTNESDGHTTSLYGIGFGPFIITNKHLFRRNNGTLVVQSLHGVFKVKDTTTLQQHLVDGRDMIIIRMPKDFPPFPQKLKFREPQREERICLVTTNFQTKSMSSMVSDTSCTFPSGDGIFWKHWIQTKDGQCGSPLVSTRDGFIVGIHSASNFTNTNNYFTSVPKNFMELLTNQEAQQWVSGWRLNADSVLWGGHKVFMVKPEEPFQPVKEATQL

Variants of: B1
Test: raw area under fraction-flipped curve 0-4 h after induction (AUC4h, not background-subtracted), DNA-recorder readout of cleavage of the substrate (dimensionless); higher = more cleavage of the substrate by the protease variant
Conditions: temperature: 34 °C; time window: 0-4 h after rhamnose induction
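Also: Bxb1 expression induced with 0.2% (w/v) L-rhamnose at OD600 near 0.5, cultures sampled hourly, flipped fraction per protease–substrate barcode pair counted by paired-end Illumina sequencing.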

Variant | area with substrate ENLYDQS | area with substrate ENLYGQS | area with substrate ENLYIQS | area with substrate ENLYMQS | area with substrate ENLYNQS | area with substrate ENLYPQS | area with substrate ENLYQQS | area with substrate ENLYRQS | area with substrate ENLYVQS | area with substrate ENLYEQS | area with substrate ENLYHQS | area with substrate ENLYKQS | area with substrate ENLYLQS | area with substrate ENLYSQS | area with substrate ENLYTQS | area with substrate ENLYWQS | area with substrate ENLYYQS
MGESLFKGPRDYNPISSSICHLTNESDGHTTSLYGIGFGPFIITNKHLFRRNNGTLVVQSLHGVFKVKDTTTLQQHLVDGRDMIIIRMPKDFPPFPQKLKFREPQREERICLVTTNFQTKSMSSMVSDTSCTFPSGDGIFWKHWIQTKDGQCGSPLVSTRDGFIVGIHSASNFTNTNEYFTSVPKNFMELLTNQEAQQWVSGWRLNADSVLWGGHKVFMVKPEEPFQPVKEATQL [N178E] | 0.073 | 0.062 | 0.0647 | 0.0651 | 0.0621 | 0.0273 | 0.0113 | 0.063 | 0.0582 | – | – | – | – | – | – | – | –
MGESLFKGPRDYNPISSSICHLTNESDGHTTSLYGIGFGPFIITNKHLFRRNNGTLVVQSLHGVFKVKDTTTLQQHLVDGRDMIIIRMPKDFPPFPQKLKFREPQREERICLVTTNFQTKSMSSMVSDTSCTFPSGDGIFWKHWIQTKDGQCGSPLVSTRDGFIVGIHSASNFTNTNGYFTSVPKNFMELLTNQEAQQWVSGWRLNADSVLWGGHKVFMVKPEEPFQPVKEATQL [N178G] | 0.0684 | – | – | – | 0.0498 | – | 0.0453 | 0.0674 | 0.142 | 0.0689 | 0.0608 | 0.058 | 0.0867 | 0.0954 | – | – | –
MGESLFKGPRDYNPISSSICHLTNESDGHTTSLYGIGFGPFIITNKHLFRRNNGTLVVQSLHGVFKVKDTTTLQQHLVDGRDMIIIRMPKDFPPFPQKLKFREPQREERICLVTTNFQTKSMSSMVSDTSCTFPSGDGIFWKHWIQTKDGQCGSPLVSTRDIFIVGIHSASNFTNTNNYFTSVPKNFMELLTNQEAQQWVSGWRLNADSVLWGGHKVFMVKPEEPFQPVKEATQL [G162I] | 0.0401 | – | 0.0641 | 0.062 | – | 0.0527 | – | 0.0635 | – | – | – | 0.0877 | – | – | 0.0595 | 0.0626 | 0.0391
MGESLFKGPRDYNPISSSICHLTNESDGHTTSLYGIGFGPFIITNKHLFRRNNGTLVVQSLHGVFKVKDTTTLQQHLVDGRDMIIIRMPKDFPPFPQKLKFREPQREERICLVTTNFQTKSMSSMVSDTSCTFPSGDGIFWKHWIQTKDGQCGSPLVSTRDWFIVGIHSASNFTNTNNYFTSVPKNFMELLTNQEAQQWVSGWRLNADSVLWGGHKVFMVKPEEPFQPVKEATQL [G162W] | 0.0662 | – | – | 0.114 | – | 0.0876 | 0.0602 | 0.0596 | 0.075 | 0.0881 | 0.0469 | 0.0619 | – | 0.0613 | – | – | 0.0543
MGESLFKGPRDYNPISSSICHLTNESDGHTTSLYGIGFGPFIITNKHLFRRNNGTLVVQSLHGVFKVKDTTTLQQHLVDGRDMIIIRMPKDFPPFPQKLKFREPQREERICLVTTNFQTKSMSSMVSDTSCTFPSGDGIFWKHWIQTKDGQCGSPLVSTRDGFIVGIHSASNFNNTNNYFTSVPKNFMELLTNQEAQQWVSGWRLNADSVLWGGHKVFMVKPEEPFQPVKEATQL [T174N] | 0.0574 | 0.0716 | – | 0.108 | – | 0.0783 | – | 0.0587 | 0.113 | 0.065 | 0.0649 | 0.0547 | – | – | 0.0558 | 0.0843 | –
MGESLFKGPRDYNPISSSICHLTNESDGHTTSLYGIGFGPFIITNKHLFRRNNGTLVVQSLHGVFKVKDTTTLQQHLVDGRDMIIIRMPKDFPPFPQKLKFREPQREERICLVTTNFQTKSMSSMVSDTSCTFPSGDGIFWKHWIQTKDGQCGSPLVSTRDGFIVGIHSASNFTNTNNYFTSVPKNFMELLTNQEAAQWVSGWRLNADSVLWGGHKVFMVKPEEPFQPVKEATQL [Q197A] | 0.0709 | 0.0652 | 0.0838 | 0.104 | – | – | 0.0805 | – | 0.111 | 0.0683 | – | – | – | – | 0.0751 | 0.0691 | –
MGESLFKGPRDYNPISSSICHLTNESDGHTTSLYGIGFGPFIITNKHLFRRNNGTLVVQSLHGVFKVKDTTTLQQHLVDGRDMIIIRMPKDFPPFPQKLKFREPQREERICLVTTNFQTKSMSSMVSDTSCTFPSGDGIFWKHWIQTKDGQCGSPLVSTRDGFIVGIHSASNFTNTNNYFTSQPKNFMELLTNQEAQQWVSGWRLNADSVLWGGHKVFMVKPEEPFQPVKEATQL [V183Q] | 0.059 | 0.0359 | 0.0501 | 0.0619 | 0.056 | – | 0.0616 | 0.0481 | – | 0.0813 | 0.0676 | 0.0224 | 0.0794 | 0.0466 | 0.0516 | 0.0558 | –
MGESLFKGPRDYNPISSSICHLTNESDGHTTSLYGIGFGPFIITNKHLFRRNNGTLVVQSLHGVFKVKDTTTLQQHLVDGRDMIIIRMPKDFPPFPQKLKFREPQREERICLVTTNFQTKSMSSMVSDTSCTFPSGDGIFWKHWIQTKDGQCGSPLVSTRDGFIVGIHSASNYTNTNNYFTSVPKNFMELLTNQEAQQWVSGWRLNADSVLWGGHKVFMVKPEEPFQPVKEATQL [F173Y] | 0.0609 | 0.0708 | 0.0982 | – | 0.0698 | 0.0957 | 0.0873 | 0.0484 | – | 0.0532 | 0.0546 | 0.0324 | – | 0.0622 | – | 0.0817 | 0.024
MGESLFKGPRDYNPISSSICHLTNESDGHTTSLYGIGFGPFIITNKHLFRRNNGTLVVQSLHGVFKVKDTTTLQQHLVDGRDMIIIRMPKDFPPFPQKLKFREPQREERICLVTTNFQTKSMSSMVSDTSCTFPSGDGIFWKHWIQTKDGQCGSPLVSTRDGFIVGIHSASNCTNTNNYFTSVPKNFMELLTNQEAQQWVSGWRLNADSVLWGGHKVFMVKPEEPFQPVKEATQL [F173C] | 0.0665 | 0.0622 | – | – | 0.0507 | 0.061 | 0.0613 | – | – | 0.0704 | 0.0537 | – | – | – | 0.0803 | 0.0544 | 0.0721
